Assay results published in article PMC4336329 (PLoS ONE, 2015).
In all, about 310,000 compounds went through this assay and about 2,200 (0.71%) showed an effect of 50% or more. Effects have a minus sign here. The list shows a part of the results.

Each compound was assayed against human ether-à-go-go-related gene (hERG) potassium channel (human, UniProt Q12809) (assay: primary screen, population patch clamp on CHO cells stably expressing hERG).
human ether-à-go-go-related gene (hERG) potassium channel, sequence (Q12809 whole entry, looked up): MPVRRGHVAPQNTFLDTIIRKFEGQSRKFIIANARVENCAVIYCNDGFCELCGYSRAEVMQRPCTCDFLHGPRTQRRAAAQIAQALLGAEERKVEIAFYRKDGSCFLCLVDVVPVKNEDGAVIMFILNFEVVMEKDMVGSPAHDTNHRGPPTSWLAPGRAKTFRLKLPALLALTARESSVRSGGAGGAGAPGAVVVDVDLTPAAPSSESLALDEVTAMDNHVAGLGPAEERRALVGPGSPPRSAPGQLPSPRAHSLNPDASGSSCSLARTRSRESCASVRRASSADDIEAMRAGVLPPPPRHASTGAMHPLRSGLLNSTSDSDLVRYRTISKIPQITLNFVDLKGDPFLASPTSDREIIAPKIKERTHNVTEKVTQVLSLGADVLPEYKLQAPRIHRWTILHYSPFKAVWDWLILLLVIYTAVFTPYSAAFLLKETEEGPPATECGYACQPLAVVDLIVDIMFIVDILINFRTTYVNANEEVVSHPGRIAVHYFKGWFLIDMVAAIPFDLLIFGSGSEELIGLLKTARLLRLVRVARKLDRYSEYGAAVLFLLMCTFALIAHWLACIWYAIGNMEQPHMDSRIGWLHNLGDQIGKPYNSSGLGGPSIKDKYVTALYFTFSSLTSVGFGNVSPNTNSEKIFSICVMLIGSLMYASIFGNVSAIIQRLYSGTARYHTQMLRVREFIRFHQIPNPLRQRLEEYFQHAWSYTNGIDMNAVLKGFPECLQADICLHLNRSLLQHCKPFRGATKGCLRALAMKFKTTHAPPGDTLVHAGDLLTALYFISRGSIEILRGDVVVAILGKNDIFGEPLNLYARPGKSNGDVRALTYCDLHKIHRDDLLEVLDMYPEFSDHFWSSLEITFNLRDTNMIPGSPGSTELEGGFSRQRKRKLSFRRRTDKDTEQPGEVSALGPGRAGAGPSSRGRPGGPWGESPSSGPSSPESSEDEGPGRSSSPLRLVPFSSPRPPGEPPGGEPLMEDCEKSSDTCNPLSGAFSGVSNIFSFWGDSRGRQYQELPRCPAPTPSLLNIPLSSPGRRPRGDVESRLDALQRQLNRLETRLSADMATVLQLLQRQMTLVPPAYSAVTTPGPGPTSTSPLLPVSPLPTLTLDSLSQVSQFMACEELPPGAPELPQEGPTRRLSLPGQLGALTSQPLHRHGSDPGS

Point of comparison: COc1ccccc1S(=O)(=O)Cc1ccc(C(=O)NCCN2CCCC2)o1, “hERG current change (%, negative = inhibition) at 1uM” value 14.2%. Against it:
- CC1CCCC(C)N1C(=O)COC(=O)CNC(=O)c1ccccc1F (stereo not drawn) — higher, 17.3%
- CSc1nnc(-c2ccc(C(F)(F)F)cn2)o1 — lower, -7.32%
- CCOC(=O)C1=C(CNCc2ccc(F)cc2)NC(=O)NC1c1cccc([N+](=O)[O-])c1 (stereo not drawn) — lower, -2.87%
- C=CCn1c(SCc2cc(C(=O)OC)c(C)o2)nnc1-c1ccncc1 — lower, 6.09%
- CC(CCCC(C)(C)O)NC(=O)c1cc(COc2ccc3ncccc3c2)on1 (stereo not drawn) — lower, 2.77%
- CC(C(=O)NCc1cccc(Cl)c1)N1C(=O)c2ccccc2C1=O (stereo not drawn) — lower, 11.7%
- Cc1ccccc1NC(=O)Cc1c[nH]c2ccccc12 — lower, 11.3%
- Cc1cccc(CN2CCc3c(OCC(=O)N4CCCc5ccccc54)cccc3C2=O)c1 — lower, 9.31%
- Cc1noc(C)c1CSCC(=O)Nc1ccc(S(C)(=O)=O)cc1 — higher, 15.3%
- O=C(Nc1ccc(F)cc1)c1cc2cc(Cl)ccc2[nH]1 — lower, 8.87%
- O=C(Nc1nnc(COc2ccccc2)s1)C1CCN(S(=O)(=O)c2ccc(Cl)cc2)CC1 — lower, 2.84%
- COc1ccc(OC)c(/C=C/C(=O)OCC(=O)Nc2cccc(Oc3ccccc3)c2)c1 — higher, 18%
- O=[N+]([O-])c1cccc(N/N=C/c2cccc3ccccc23)c1 — lower, 4.29%
- C=CCn1c(SCC(=O)Nc2sc(C)c(C)c2C(=O)OCC)nnc1-c1sc(N)nc1C — lower, 5.02%
- CSCc1ccc(C(=O)NCc2ccc(F)cc2)cc1 — higher, 15.6%
- CN(c1ccc(C(=O)NCc2ccccn2)cc1)S(=O)(=O)c1ccc(Cl)cc1 — lower, 9.65%
- Cc1cccn2c(=O)c(C=NCCO)c(NCc3ccco3)nc12 — lower, 1.45%
- O=C(NCCN1CCOCC1)/C(=C/c1ccccc1)NC(=O)c1ccccc1 — lower, 3.35%
- CCc1ccc2n(-c3ccc(OC)cc3)c([S-])c(C(=O)Nc3cc(C)cc(C)c3)[n+]2c1 — lower, 13.7%
- COCCN(C(=O)CSc1nnc(-c2ccco2)n1C)c1c(N)n(CC(C)C)c(=O)[nH]c1=O — lower, 8.54%
- Cc1nn(C2CCS(=O)(=O)C2)c(Cl)c1/C=C/C(=O)OCC(=O)Nc1ccccc1OC(F)F (stereo not drawn) — lower, 13.7%
- O=C(COC(=O)Cc1ccsc1)Nc1cccc(F)c1 — lower, 5.14%
- COc1ccc(C(=O)N2CCN(c3cnn(-c4ccccc4)c(=O)c3Cl)CC2)cc1 — lower, -38.5%
- CC(=O)c1ccc(OCCCC(=O)OCC(=O)Nc2c(C)nn(-c3ccccc3)c2C)cc1 — lower, 7.67%
- COc1ccc(C(=O)N2CCCC(O)C2)cc1OC1CCN(C(C)C)CC1 (stereo not drawn) — higher, 19.9%
- CC1=NN(c2ccccc2)C(=O)/C1=C\c1cn(C)c2ccccc12 — lower, 7.98%
- COCC(C)NC(C(=O)Nc1cccc(C(C)=O)c1)c1ccccc1 (stereo not drawn) — lower, 7.18%
- COc1ccc(Nc2nc(N)c(C(=O)c3ccc(OC)cc3)s2)cc1 — lower, -5.28%
- COc1cccc(-c2ccc(=O)n(CC(=O)NCCN3CCOCC3)n2)c1 — lower, -8.11%
- CC(C)C1S/C(=N/N=C/c2cccs2)NC1=O (stereo not drawn) — lower, 12.5%
- CC(CCO)Nc1nc2c(c(=O)n(C)c(=O)n2C)n1Cc1cccc(Br)c1 (stereo not drawn) — lower, 13%
- CCOc1ccc(C2CC(c3cccc(OC)c3OC)n3nnnc3N2)cc1Cl (stereo not drawn) — lower, 10.5%
- COc1ccc(Cl)cc1NC(=O)CSc1nc(Nc2ccccc2)nc(N2CCOCC2)n1 — lower, 10%
- CN(CC(=O)Nc1ccc2c(c1)CCC2)CC(=O)Nc1ccccc1Br — lower, 7.16%
- NC(=O)C1CCN(C(=O)C2(NC(=O)Nc3cccc(F)c3)CCCCC2)CC1 — higher, 14.7%
- CCCc1nc2sc3c(=O)n(N)cnc3c2c2c1COC(C)(C)C2 — lower, 7.5%
- CCOC(=O)C1C2NC(=O)N(Cc3ccccc3)C1(C)Oc1c(OC)cccc12 (stereo not drawn) — lower, 11.5%
- Cc1ccccc1Oc1nc(-c2ccccn2)nc2ccccc12 — lower, 2.99%
- O=C(CN1CCCCC1)NC(=O)NC1CCCC1 — lower, 9.34%
- CC(C)CC1(C)NC(=O)N(Cc2cc([N+](=O)[O-])cc3c2OCOC3)C1=O (stereo not drawn) — lower, 9.47%
- CC1CCN(CCCNC(=O)c2ccc3c(=O)n(CCc4ccccc4)c(=O)[nH]c3c2)CC1 — lower, 10.6%
- Cc1nc2ccccc2c2oc(C(=O)NCc3ccccn3)cc12 — lower, -9.12%
- Cc1ccc(NS(=O)(=O)N(C)C)cc1 — lower, 9.86%
- Cc1cc(Cl)nc(Cl)c1C(=O)NC(=O)NCCC(C)C — lower, 2.47%
- CCOC(=O)N1CCC(NCCNC(=O)c2cccs2)CC1 — lower, 5.13%
- Cc1cccc(C(=O)NC2CCCCCCC2)c1 — lower, 10.2%
- Cc1ccsc1C1C(C#N)=C(N)OC2=C1C(=O)CCC2 (stereo not drawn) — lower, 10.5%
- CCN(CC)CCn1c(=S)[nH]c2ccc(Br)cc2c1=O — lower, -27.2%
- CCOC(=O)c1cccc(NC(=O)c2c(NCc3ccccc3)[nH]c(=O)[nH]c2=O)c1 — lower, 7.11%
- CCOC(=O)NCCc1ccc(OC)cc1 — lower, 12.3%
- O=C(NC1CCCCC1)C(c1ccco1)N(Cc1cccnc1)C(=O)C1COc2ccccc2O1 (stereo not drawn) — lower, 5.59%
- COc1ccc(-n2nnnc2SCC(=O)Nc2ccc(OC)cc2OC)cc1 — lower, 12.8%
- CC1Sc2ccc(S(=O)(=O)CCC(=O)NC3CCCC(C)C3C)cc2NC1=O (stereo not drawn) — higher, 22.2%
- CCNC(=S)Nc1nc2c(cc1C(=O)OCC)CCCC2 — lower, 13.1%
- Cc1ccc(NS(=O)(=O)c2ccc3c(c2)CC(=O)N3)cc1C — lower, 14%
- CC(C)C(NS(=O)(=O)c1cccs1)C(=O)NCCCN1CCCCCC1 (stereo not drawn) — lower, 10.4%
- Cc1cccc2cc(CNCc3ccccc3)c(Cl)nc12 — lower, 12.5%
- C[C@H]1CN=C(N(C)C)N1CCC1CCCCC1 — lower, 13.6%
- COc1ccc(CCN=C(N)NS(=O)(=O)c2cccs2)cc1OC — lower, 10.8%
- O=C(O)C1=NN(c2ccccc2)C(=O)CC1 — higher, 16.1%
- COCCCNc1nc2c(c(=O)n(Cc3ccc(Cl)cc3)c(=O)n2C)n1C — lower, 6%
- CCOc1ccc2nc(NC3=NC(c4ccc(OC)cc4)CC(=O)N3)nc(C)c2c1 (stereo not drawn) — lower, 6.72%
- Cn1cc(C(=O)Nc2ccc(C#N)cc2)c2ccccc2c1=O — lower, 10.7%
- Cc1cc(NC(=O)Cn2c(=O)oc3ccc(Cl)cc32)no1 — lower, 13.5%
- Cc1cc(Cl)cc(C)c1OCCCCN1CCOCC1 — lower, -5.5%
- CC(C)c1cccc(C(C)C)c1NC(=S)Nc1cccc(Cl)c1 — lower, 4.68%
- COc1ccc(Oc2ccc(C(F)(F)F)cc2NC(=O)c2ccc(OC)cc2)cc1 — lower, 13.1%
- Cc1c(Cl)cccc1NC(=O)CNC(=O)c1ccc(F)cc1 — higher, 18%
- CCOC(=O)CSC(=S)NC(=O)c1ccc(OC)cc1 — higher, 20.3%
- Cc1ccc(S(=O)(=O)N2CCCC2C(=O)NCCc2nc3ccccc3[nH]2)cc1 (stereo not drawn) — lower, 5.84%
- O=C(NCc1ccccc1)c1ccc2nc(-c3ccco3)c(-c3ccco3)nc2c1 — lower, 2.51%
- CN(Cc1ccccc1)c1ncnc2sccc12 — lower, 7.75%
- CCOC(=O)C1=C(C)Nc2ccccc2N=C1NC(=O)/C=C/c1ccc(OC)cc1OC — lower, -3.31%
- O=C1C(=O)N(CC2CCCO2)C(c2ccccc2[N+](=O)[O-])/C1=C(/O)c1ccccc1 (stereo not drawn) — lower, 10.2%
- COc1cc(CN2CCN(S(=O)(=O)c3ccc(F)cc3)CC2)cc(OC)c1OC.O=C(O)C(=O)O — lower, 6.91%
- Cc1ccccc1NC(=O)C(=O)NCCc1c[nH]c2ccccc12 — lower, 4.74%
- CC1(C)OC(=O)C(=CSc2ccc(C(C)(C)C)cc2)C(=O)O1 — lower, 10.7%
- Cn1ncc(N=Cc2c(O)ccc3ccccc23)c1C(=O)N1CCOCC1 — lower, 8.07%
- O=C(NCCCN1CCOCC1)c1ccc2c(c1)N(Cc1ccccc1)C(=O)c1ccccc1S2=O (stereo not drawn) — lower, 9.92%
- O=C(N/N=C/c1c(O)n(C2CCCCC2)c(=S)[nH]c1=O)c1ccccc1O — lower, 12.7%
- Cc1cc2ncn(CS(C)(=O)=O)c2cc1C — higher, 16.2%
- O=C(O)c1ccccc1-c1nc2ccccc2n1-c1ccccc1 — lower, 12%
- O=C(O)C1C(c2ccccc2)C(C(=O)OCCCO)C1c1ccccc1 (stereo not drawn) — lower, 2.06%
- CCOC(=O)N1CCC(c2nc(C)sc2C(=O)O)CC1 — higher, 17.8%
- COC(C/C=C/[C@@H](O)[C@H](C)OCc1ccccc1)OC — higher, 14.4%
- COc1ccc(OCC(=O)Nc2c(Cl)ccc3nsnc23)cc1 — lower, 0.685%
- CCOC(=O)C1(CCOc2ccccc2)CCN(Cc2cnc(C)s2)CC1 — lower, -18.8%
- CC(C)(C)CN1CCNC(=O)C1CC(=O)NCCN1CCCc2ccccc21 (stereo not drawn) — lower, 7.93%
- O=C(NNS(=O)(=O)c1ccc([N+](=O)[O-])cc1)c1ccc([N+](=O)[O-])cc1 — higher, 17%
